Measurements reported in PubChem BioAssay AID938 (National Center for Advancing Translational Sciences (NCATS), 2007).
The whole screen tested about 73,000 compounds, of which about 1,800 (2.5%) were called active. The inconclusive results got no clear call from the source; some entries with a clear call stand among them for comparison. Calls come from the whole dose curve; as a rule, active = well fitted activation curve with a large enough effect; inconclusive = small, poorly fitted or top-dose-only effect; inactive = no such curve, though single readings can be large or run the other way. Potencies of inconclusive entries are left out as doubtful fits.

Experiment: qHTS Assay for Agonists of the Thyroid Stimulating Hormone Receptor: Activators of Intracellular cAMP Concentrations in Parental HEK 293; note: nearly all actives have a fitted effect of over 55% in size; for activation: % of control where 0% means no effect
Settings: parental HEK293 CNG cAMP sensor, membrane potential fluorescence; activation: at 57.1 µM (top of the series) unless noted
Method in brief: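 Parental HEK 293 cells stably expressing a modified CNG channel (no TSHR) report cAMP rise as membrane depolarization. Membrane potential dye with 100 uM RO 20-1724 was loaded for 60 min at room temperature, then compound added for 30 min; fluorescence read at 590 nm.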
Potency is the fitted concentration of half-maximal effect; tags give direction and shape of the fitted curve.

Q: For `O=C(CSc1nnc(Cc2cccs2)n1Cc1ccco1)Nc1cccc(Cl)c1`, which Potency is on record?
A: inconclusive [activator, full curve]

Q: Which Potency does the source give for `COc1cc(NC(=O)CSc2nnc3n2C(C)(C)Cc2ccccc2-3)cc(OC)c1` here?
A: inconclusive [activator, full curve, poor fit]

Q: For `C/C(CCN1CCc2nc(-c3ccccc3)c(-c3ccccc3)cc2C1)=N\OC[C@@H](O)COCc1ccco1`, which activation is on record?
A: inactive: 10.2% [at 11.4 µM]

Q: For `C[N+](C)(C)CCN(Cc1cccs1)c1ccccn1`, which activation is on record?
A: inactive: -10.2% [at 11.4 µM]

Q: Which Potency does the source give for `Cc1ccc2c(CC(=O)NCC3COc4ccccc4O3)coc2c1` (stereo not given) here?
A: inconclusive [activator, partial curve]

Q: With `Nc1c2c(nc3ccccc13)CCCC2` as the compound, how does the Potency read?
A: inactive

Q: Which Potency does the source give for `O=C(Nc1ccccc1N1CCN(C(=O)c2ccccc2)CC1)c1cc2ccccc2o1` here?
A: inconclusive [activator, single point]

Q: With `CCC(=O)N(Cc1ccco1)c1nc(-c2cc(OC)ccc2OC)cs1` as the compound, how does the Potency read?
A: inconclusive [activator, partial curve]

Q: For `COc1ccccc1N1CCN(C(CNC(=O)C2CCCCC2)c2cccnc2)CC1` (stereo not given), which Potency is on record?
A: inconclusive [activator, single point]

Q: With `Nc1nnnn1/N=C/c1ccccc1OCc1ccccc1` as the compound, how does the Potency read?
A: inconclusive [activator, partial curve]

Q: Which Potency does the source give for `COc1ccc(-c2csc(NCc3ccco3)n2)cc1C` here?
A: inactive

Q: With `Cc1nc(N)sc1-c1csc(Nc2ccc(Cl)cn2)n1` as the compound, how does the Potency read?
A: inactive

Q: For `CN(C)c1cccc2c(S(=O)(=O)Nc3ccccn3)cccc12`, which Potency is on record?
A: inconclusive [activator, partial curve]

Q: Which Potency does the source give for `CCCNc1nc2c(c(=O)n(C)c(=O)n2C)n1Cc1cccc(C)c1` here?
A: inconclusive [activator, single point]

Q: For `COc1ccc(Cn2c(C3CC3)nc3ccc(NC(=O)C4CC4)cc3c2=O)cc1`, which Potency is on record?
A: inconclusive [activator, single point]

Q: With `Cc1nnc2n(Cc3ccccc3)c(=O)c3c4c(sc3n12)COC(C)(C)C4` as the compound, how does the Potency read?
A: inconclusive [activator, full curve, poor fit]

Q: With `CCCCCn1c(=NC(=O)c2ccco2)c(C(=O)OCC)cc2c(=O)n3ccccc3nc21` as the compound, how does the Potency read?
A: inactive

Q: For `COC(=O)CSc1nnc(CNC(=O)c2ccc(S(=O)(=O)N3CCCCC3)cc2)n1C`, which Potency is on record?
A: inconclusive [activator, full curve]

Q: With `COc1ccccc1NS(=O)(=O)c1ccc(C)c(C(=O)NCC2CCCO2)c1` (stereo not given) as the compound, how does the Potency read?
A: inactive

Q: Which Potency does the source give for `Cn1c2c(c(=O)n(C)c1=O)CN(Cc1ccco1)CN2` here?
A: inactive

Q: Which Potency does the source give for `C1=C(CN2CCOCC2)COc2c1cccc2OC[C@@H]1CNCCO1` here?
A: inactive

Q: Which Potency does the source give for `Cn1c(=O)oc2cc(S(=O)(=O)NCc3ccco3)ccc21` here?
A: inactive

Q: Which Potency does the source give for `C/C(NC(=O)c1ccccc1)=C1/C(=O)CC2C1C2(C)C` (stereo not given) here?
A: active: 3.98 µM

Q: For `Cc1cc(C(=O)CSc2nc(N)cc(N)n2)c(C)n1CCc1ccc(F)cc1`, which Potency is on record?
A: inconclusive [activator, single point]

Q: For `COc1ccc2cc(S(=O)(=O)N3CCN(C)CC3)ccc2c1`, which Potency is on record?
A: inconclusive [activator, partial curve]

Q: For `COc1ccc(NC(=O)N2CC3(CCN(C(=O)c4csnn4)CC3)C2)cc1`, which Potency is on record?
A: inconclusive [activator, single point]

Q: With `O=S(=O)(c1ccccc1)N1CCC2(CCCN(c3ncccn3)C2)CC1` as the compound, how does the Potency read?
A: inconclusive [activator, partial curve]

Q: For `CCOC(=O)C1=C(N)OC2=C(C(=O)CCC2)C1c1ccco1` (stereo not given), which Potency is on record?
A: inconclusive [activator, full curve, poor fit]

Q: Which Potency does the source give for `O=c1cc(-c2ccccc2)oc2cc(O)cc(O)c12` here?
A: inactive

Q: Which Potency does the source give for `c1csc(CNc2ncnc3ccc(-c4ccc5c(c4)OCO5)cc23)c1` here?
A: inconclusive [activator, partial curve]

Q: With `Clc1ccccc1OCCCCn1ccnc1` as the compound, how does the Potency read?
A: inconclusive [activator, single point]

Q: For `O=C(O)CCC(=O)N1CCc2cc(S(=O)(=O)N3CCCCC3)ccc21`, which Potency is on record?
A: inactive

Q: Which Potency does the source give for `Cc1ccc2c(c1)[nH]c1c(N3CCN(Cc4ccccc4)CC3)ncnc12` here?
A: inconclusive [activator, partial curve]

Q: With `COc1ccc(OCC2Cc3c(-c4ccccc4)nc4c(c3CO2)CN(CCOc2ccccc2)CC4)cc1` (stereo not given) as the compound, how does the activation read?
A: inactive: 3.95% [at 11.4 µM]

Q: With `Cc1ccc(Cn2nnc3c(=O)n(CC(=O)c4ccccc4)cnc32)cc1` as the compound, how does the Potency read?
A: inconclusive [activator, partial curve]

Q: Which Potency does the source give for `c1coc(CNc2nc(N3CCCCC3)nc3ccccc23)c1` here?
A: inconclusive [activator, partial curve]

Q: With `CCN(CC)S(=O)(=O)c1cc(C(=O)Oc2ccccc2OC)ccc1OC` as the compound, how does the Potency read?
A: inconclusive [activator, partial curve]

Q: With `CCC1(C)N(O)C(C)(C)C(c2ccc(OC)cc2)=[N+]1[O-]` (stereo not given) as the compound, how does the Potency read?
A: inconclusive [activator, single point]

Q: With `COC(=O)CN(c1nc(C)cc(OC)n1)S(=O)(=O)c1ccc(C)cc1` as the compound, how does the Potency read?
A: inconclusive [activator, partial curve]

Q: For `Oc1ccc(COCc2ccccc2)c2cccnc12`, which Potency is on record?
A: inconclusive [activator, single point]

Q: Which Potency does the source give for `C/C(=C\C(=O)Nc1nccs1)c1ccccc1` here?
A: inactive

Q: Which Potency does the source give for `O=C(COC(=O)C1(c2ccccc2F)CCCC1)N1CCN(C(=O)c2ccco2)CC1` here?
A: inconclusive [activator, partial curve]

Q: With `Cc1ccc(OCC(=O)N2CCCCC2)c(Br)c1` as the compound, how does the Potency read?
A: inconclusive [activator, single point]

Q: Which Potency does the source give for `CCn1c(NC(=O)c2cccc(Cn3cc(Cl)cn3)c2)nc2ccccc21` here?
A: inconclusive [activator, single point]

Q: For `COc1cccc(-c2cncnc2NCc2ccccc2)c1`, which Potency is on record?
A: inconclusive [activator, partial curve]

Q: Which Potency does the source give for `O=C(O)c1c(-c2ccccc2)c2oc3ccccc3c2[nH]c1=O` here?
A: inconclusive [activator, single point]

Q: For `O=C(CSc1nnnn1-c1ccccc1)Nc1nsc(-c2ccc(Cl)cc2)n1`, which Potency is on record?
A: inconclusive [activator, full curve]

Q: With `CN(c1ccccc1)c1nc2ccsc2c(=O)s1` as the compound, how does the Potency read?
A: inconclusive [activator, single point]

Q: For `CN=C1SC(CC(=O)Nc2cccc(C(F)(F)F)c2)C(=O)N1C` (stereo not given), which Potency is on record?
A: inconclusive [activator, single point]

Q: With `CCCC(C(=O)NC1CCCC1)N(C(=O)Cn1nnc(-c2ccc(C)o2)n1)c1ccccc1OC` (stereo not given) as the compound, how does the Potency read?
A: inconclusive [activator, full curve]

Q: For `CN(C)c1ncc2nc(-c3cccs3)c(=O)n(-c3ccccc3)c2n1`, which Potency is on record?
A: inactive

Q: With `O=C(CSc1nc2ccccc2c(=O)[nH]1)c1ccc(O)c(O)c1` as the compound, how does the Potency read?
A: inactive

Q: For `CCCC(=O)c1cc2cc(Cl)ccc2oc1=O`, which Potency is on record?
A: inconclusive [activator, full curve, poor fit]

Q: Which Potency does the source give for `c1ccc2nc(-c3nc4ccccc4[nH]3)ccc2c1` here?
A: inconclusive [activator, partial curve]

Q: With `COc1ccc(OCCSc2nc3ccccc3c(=O)[nH]2)cc1` as the compound, how does the Potency read?
A: inconclusive [activator, partial curve]

Q: With `COc1cc2cc(CN(Cc3nnnn3Cc3ccco3)C3CCCCC3)c(=O)[nH]c2cc1OC` as the compound, how does the Potency read?
A: inactive

Q: For `Cc1nn(-c2ccccc2)c2c1C(c1c(C)[nH]c(C#N)c1C)C(C#N)=C(N)O2` (stereo not given), which Potency is on record?
A: inactive

Q: With `COc1ccccc1CNc1cc(-c2ccccc2C(F)(F)F)ncn1` as the compound, how does the Potency read?
A: inconclusive [activator, full curve]

Q: With `COC(=O)Cc1c(C)c2ccc(OCC(=O)N3CCOCC3)cc2oc1=O` as the compound, how does the Potency read?
A: inactive

Q: Which Potency does the source give for `CCCCSc1nc2c(c(=O)n1CC)SC(C)C2` (stereo not given) here?
A: inconclusive [activator, single point]

Q: For `CCc1ccc2[nH]c(=O)c(CN(Cc3ccc4c(c3)OCO4)C(=O)c3ccco3)cc2c1`, which Potency is on record?
A: inconclusive [activator, partial curve]

Q: Which Potency does the source give for `Cc1nc(SCc2cccc(F)c2)[nH]c(=O)c1C#N` here?
A: inconclusive [activator, partial curve]

Q: For `Oc1ccccc1-c1cc(C(F)(F)C(F)F)nc(-c2ccccc2)n1`, which Potency is on record?
A: inconclusive [activator, full curve, poor fit]

Q: With `CCn1c(SCc2ccccc2)nnc1-c1ccc(S(=O)(=O)N2CCCCC2)cc1` as the compound, how does the Potency read?
A: inconclusive [activator, partial curve]

Q: Which Potency does the source give for `CCc1ccc2c(-c3cccc(Cl)c3)nc(=O)n(CC)c2n1` here?
A: inconclusive [activator, partial curve]

Q: Which Potency does the source give for `C[C@@]12CC[C@@H]3c4ccc(O)cc4CC[C@H]3[C@H]1CC[C@H]2O` here?
A: inconclusive [activator, single point]

Q: With `COCCN(C(=O)Cn1nnc2ccccc21)C(C(=O)NC1CCCC1)c1cccc(OC)c1OC` (stereo not given) as the compound, how does the Potency read?
A: active: 20 µM

Q: Which Potency does the source give for `COC(=O)[C@@H]1C[C@H]1[C@@H](NC(=O)c1cc(C)on1)c1ccccc1` here?
A: inactive

Q: For `COc1ccc(-n2c(Cc3cccn3C)nnc2SCC(=O)Nc2ccc(C)cc2C)cc1`, which Potency is on record?
A: inconclusive [activator, single point]

Q: For `CN(c1ccccc1)c1nc(N2CCCC2)nc(-n2ccnc2)n1`, which Potency is on record?
A: inconclusive [activator, single point]
